# Assay results published in PubChem BioAssay AID651820 (National Center for Advancing Translational Sciences (NCATS), 2012).
# The whole screen tested about 340,000 compounds, of which about 12,000 (3.5%) were called active. The shares of active, inactive and inconclusive entries below differ from those in the screen. Calls follow the shape of the dose curve; as a rule, active = well fitted inhibition curve with a large enough effect; inconclusive = small, poorly fitted or top-dose-only effect, or another doubt; inactive = no such curve, though single readings can be large or run the other way. Potencies of inconclusive entries are left out as doubtful fits.
# Test: qHTS Assay for Inhibitors of Hepatitis C Virus (HCV)
# Settings: Huh7.5.1 HCVcc-Cre (HCVcc is cell-culture hepatitis C virus) infection, luciferase reporter, 44 h; activity change, negative = inhibition: at 41.8 µM (top of the series) unless noted
# How it was run: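 Reporter virus HCVcc-Cre (~0.5 moi) infects cells exposed to compound; seeding density 1,000 cells/well with 4 h settling beforehand. Luminescence, 15 sec read, taken 44 h post-infection following a 15 min RT substrate incubation.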
# % is scaled to controls: 0 for no effect and ±100 for the full control effect; potency is read from the fitted curve at half-maximal effect; tags tell the direction and shape of the fitted curve.
Compound,Potency,"activity change, negative = inhibition"
CN(C)CC1CSCCC1(O)c1ccc(Cl)cc1 (configuration not stated),"inconclusive [inhibitor, single point]",
O=C1OC[C@H](Cc2ccc3c(c2)OCO3)/C1=C\c1ccc2c(c1)OCO2,"inconclusive [inhibitor, partial curve]",
CN(Cc1nc(CC2CC2)no1)CC12CC3CC(CC(C3)C1)C2,inactive,
CCc1cc(C(=O)N2CCc3c([nH]c4ccccc34)C2c2ccc(OC)cc2F)no1 (configuration not stated),"inconclusive [inhibitor, single point]",
CCOc1cc(/C=C2/SC(=S)N(Cc3ccccc3)C2=O)ccc1O,"inconclusive [inhibitor, single point]",
CNC(=S)N(C)/N=C1/C(=O)N(Cc2c(Cl)cccc2Cl)c2ccccc21,active: 12.6 µM,
C=CCOn1c(=O)c(-c2cccs2)[n+]([O-])c2ccccc21,"inconclusive [inhibitor, single point]",
Fc1ccc(/C=C\c2nccc3c2[nH]c2ccccc23)cc1,"inconclusive [inhibitor, single point]",
Cc1nc(CNS(=O)(=O)c2ccc(F)cc2)cs1,inactive,
O=c1oc2ccccc2c(NC2CCCCC2)c1NS(=O)(=O)c1ccc(Br)cc1,inactive,
Cc1csc(SCC(=O)Nc2cc(S(=O)(=O)N(C)C)ccc2C)n1,"inconclusive [inhibitor, partial curve]",
COc1ccc([N+](=O)[O-])cc1N(CC(=O)NCCCOC(C)C)S(C)(=O)=O,inactive,
Cc1cnc(NC(=O)c2nn(C)cc2[N+](=O)[O-])s1,"inconclusive [inhibitor, partial curve]",
COc1nc(N=C(N)N)nc2c(C)cccc12,"inconclusive [inhibitor, single point]",
O=Cc1ccc(O)c2ncccc12,"inconclusive [inhibitor, partial curve]",
COc1ccc2oc(C(=O)NCCc3ccccc3)c(C)c2c1,inactive,
CSc1ccccc1C(=O)N1CCN(c2cccc(Cl)c2)CC1,"inconclusive [inhibitor, single point]",
COc1ccc(-c2cc(=O)oc3cc(OC(C)C(=O)NCc4ccccn4)ccc23)cc1 (configuration not stated),"inconclusive [inhibitor, partial curve]",
Cc1ccccc1OCC(=O)N/N=C/c1c(C)nn(-c2ccccc2)c1Cl,"inconclusive [inhibitor, single point]",
Cc1cc2cc(CN(Cc3ccc4c(c3)OCO4)C(=O)c3cnccn3)c3nnnn3c2cc1C,"inconclusive [inhibitor, single point]",
CCN(CC)C(=O)CSc1nc(C)cc(-c2cccs2)c1C#N,"inconclusive [inhibitor, partial curve, poor fit]",
C=CCOc1c(Br)cc(CNn2nnnc2N)cc1OC,"inconclusive [inhibitor, single point]",
COc1ccc2c(c1)CCCN2C(N)=Nc1ccc(Cl)cc1,"inconclusive [inhibitor, single point]",
COc1ccc(C)cc1NC(=O)CN(c1ccccc1)S(C)(=O)=O,inactive,

Compound,Potency,"activity change, negative = inhibition"
CC(C)CCNC(=O)CN1C(=O)CN=C(c2ccccc2)c2ccccc21,inactive,
O=C(COc1ccccc1)n1nc(-c2ccc(Cl)cc2)nc1NCc1ccco1,"inconclusive [inhibitor, single point]",
N#C/C(=C\c1ccc(O)c(O)c1)C(=O)NCc1ccccc1,"inconclusive [inhibitor, single point]",
O=C(NC1CC2CCCC(C1)N2Cc1ccccc1)c1cccc(Cl)c1 (configuration not stated),inactive,
CCC1(c2ccccc2)NC(=O)N(CC(=O)Nc2ccc(N3CCCC3)cc2C)C1=O (configuration not stated),"inconclusive [inhibitor, partial curve]",
O=C(c1ccccc1Br)N1CCc2c([nH]c3ccccc23)C1,inactive,
O=C1C=C(c2ccc3c(c2)OCO3)C[C@@H](c2ccc3c(c2)OCO3)C1,"inconclusive [inhibitor, single point]",
CC(C)OCCCNC(=S)N1CCC(C(=O)c2ccc(Cl)cc2)CC1,"inconclusive [inhibitor, single point]",
Cn1c(=O)c(C(=O)NNC(=O)c2ccccc2Cl)c(O)c2ccccc21,inactive,
O=C(Nc1cccnc1)c1ccc(S(=O)(=O)c2ccccc2)cc1,,inconclusive: -38.4% [inhibitor]
O=C(Nc1nnc(-c2ccco2)o1)c1ccc2ccccc2c1,"inconclusive [inhibitor, single point]",
CC(c1ccccn1)N(Cc1ccco1)C(=S)Nc1cccc(F)c1 (configuration not stated),inactive,
Cc1ccc(S(=O)(=O)N2CCCCC2)cc1NC(=O)c1cc2ccccc2o1,active: 22.4 µM,
CN(C)CCCn1c2c3ccccc3ccc2c2oc(=O)c3ccccc3c21,"inconclusive [inhibitor, single point]",
COc1ccccc1NS(=O)(=O)c1cccc(C(=O)N2CCCCCC2)c1,"inconclusive [inhibitor, full curve, poor fit]",
Cc1cccc(-c2onc3ccc(C(=O)/C=C/N(C)C)cc23)c1,"inconclusive [inhibitor, single point]",
O=C(C[C@@H]1C/C=C\C[C@@H](NC(=O)OCC2c3ccccc3-c3ccccc32)C(=O)OCCNC1=O)N[C@@H](CO)Cc1ccccc1,active: 1.78 µM,
CCCCSc1nc(C)cc(SCC(=O)N/N=C/c2ccccc2)n1,"inconclusive [inhibitor, single point]",
Cn1cc(CN2CCCC(C(=O)c3nccn3C)C2)c(-c2cccc(Cl)c2)n1 (configuration not stated),inactive,
CCCCn1nnc(NC(=S)NC(=O)c2ccc(-c3cccc(Cl)c3Cl)o2)n1,inactive,
COc1ccc(-c2ccccc2NC(=O)C2CCCN(Cc3ccco3)C2)cc1 (configuration not stated),"inconclusive [inhibitor, single point]",
Cc1ccc(-n2ncc3c(=O)n(CC(=O)NC4CCCCC4)cnc32)cc1C,inactive,
Cc1cc2c(cc1C)N(C(=O)CSC1=NCCS1)C(C)(C)c1ssc(=S)c1-2,"inconclusive [inhibitor, partial curve, poor fit]",
C=CCn1c(SCC(=O)Nc2ccc(C(=O)OCC)cc2)nnc1-c1sc(N)nc1C,"inconclusive [inhibitor, full curve]",

Compound,Potency,"activity change, negative = inhibition"
C/C(=N\Nc1ccccn1)c1ccc(C(C)C)cc1,"inconclusive [inhibitor, single point]",
CC(=O)/C(N=Nc1ccc(SC(F)F)cc1)=C(\C)O,"inconclusive [inhibitor, single point]",
Cn1c(=O)c2c(nc(N3CCN(c4ccccc4)CC3)n2CCCc2ccccc2)n(C)c1=O,"inconclusive [inhibitor, single point]",
CCN(C(=O)CSc1nnc(-c2ccc3c(c2)OCO3)o1)C1CCS(=O)(=O)C1 (configuration not stated),inactive,
CC(CN(C)C)CN1c2ccccc2Sc2ccccc21 (configuration not stated),"inconclusive [inhibitor, single point]",
O=C(NN1CCCCC1)c1cnn2c(C(F)F)cc(-c3ccccc3)nc12,"inconclusive [inhibitor, single point]",
Cc1ccc(C(O)(c2ccccc2)c2ccccc2C(C)N(C)C)c(C)c1 (configuration not stated),"inconclusive [inhibitor, partial curve]",
Cc1cccc(CSCc2ccc(C(=O)O)o2)c1,inactive,
Cc1ccccc1N1CCN(CCCOc2ccc3c(C)cc(=O)oc3c2)CC1,"inconclusive [inhibitor, partial curve]",
CCOc1cc2c(cc1OC)C(NC(=O)c1ccco1)CC2=O (configuration not stated),inactive,
O=C(C1CC(=O)N(C2CCCC2)C1)N1CCN(c2cccc(C(F)(F)F)c2)CC1 (configuration not stated),"inconclusive [inhibitor, single point]",
CCOC(=O)c1sc2nc(C)nc(NCCc3ccc(S(N)(=O)=O)cc3)c2c1C,"inconclusive [inhibitor, partial curve]",
COc1ccc(CCNC(=S)NC2CCN(Cc3ccccc3)CC2)cc1,"inconclusive [inhibitor, full curve]",
Cc1cc(C)nc(-n2nc(C)cc2NC(=O)CN2CCCC2)n1,inactive,
Cc1csc(NC(C)c2nc3cc(C(F)(F)F)ccc3n2CCCO)n1 (configuration not stated),"inconclusive [inhibitor, single point]",
N/C(=N\c1nc2ccccc2o1)NC(=O)c1ccccc1Br,"inconclusive [inhibitor, partial curve]",
CCCc1cc(=O)[nH]c(SCC(=O)Nc2ccc(C(=O)Nc3ccccc3OC)cc2)n1,"inconclusive [inhibitor, single point]",
O=C1NC(=Nc2ccc3ccccc3c2)S/C1=C/c1ccco1,inactive,
O=C1C(c2cc(=O)c3ccccc3[nH]2)=C(O)c2ccccc21,inactive,
CCN(CC)S(=O)(=O)c1ccc(NN=C2CCN(C)CC2)c([N+](=O)[O-])c1,inactive,
CCN1C(=O)/C(=C2/C=CC=CN2C)OC1=S,inactive,
Cc1cccc(NC(=O)CSc2n[nH]c(-c3ccncc3)n2)c1C,inactive,
O=C(Cn1c(=O)oc2cc(S(=O)(=O)N3CCCC3)ccc21)Nc1cccc(C(F)(F)F)c1,"inconclusive [inhibitor, full curve, poor fit]",
O=C(CC1C(=O)NCCN1C(=S)Nc1ccccc1)Nc1ccc2c(c1)OCCO2 (configuration not stated),"inconclusive [inhibitor, partial curve, poor fit]",
